Target: T1, Abl tyrosine kinase (Abelson murine leukemia virus, UniProt P00521)
T1 sequence (P00521 128-379 limits assumed): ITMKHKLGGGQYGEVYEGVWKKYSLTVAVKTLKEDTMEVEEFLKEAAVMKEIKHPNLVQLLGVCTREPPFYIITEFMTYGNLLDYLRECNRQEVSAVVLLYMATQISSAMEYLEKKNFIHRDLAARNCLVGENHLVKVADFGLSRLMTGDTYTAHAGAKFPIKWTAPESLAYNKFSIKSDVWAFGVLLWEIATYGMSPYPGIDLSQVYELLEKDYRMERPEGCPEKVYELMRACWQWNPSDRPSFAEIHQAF
Assay: ATP binding to Abl-modified SiNW FET device (conductance)
Excerpt: To develop a general system for screening small molecule inhibitors to tyrosine kinases the Abl kinase was linked to the surface of SiNW (silicon nanowire) FETs and investigated the binding of ATP and competitive inhibition of ATP binding with organic molecules (FIG. 4C). FIG. 4C illustrates the detection of ATP binding and small molecule inhibition of binding using a SiNW sensor device. The tyrosine kinase Abl was covalently linked to the surface of a SiNW and then the conductance of the nanowire device was monitored to detect ATP binding and the competitive inhibition of ATP binding by Gleevec. In this way, it was possible to monitor in real-time the binding or inhibition of binding of the negatively charged ATP to Abl as a conductance change due to chemical gating.
SiNW FETs were prepared using procedures similar to those described above. […] The Abl protein was covalently-linked through lysine residues to SiNW FETs within an integrated microfluidic channel, washed with buffer and used without further modification or dehydration. […]
Regions 91, 92 and 93 correspond to 0.1, 3, and 20 nM ATP, respectively. […] The conductance of SiNW FETs was recorded using lock-in amplifier at 31 Hz and 30 mV modulation amplitude; the dc-bias voltage was zero. […]

For `Nc1ncnc2c1ncn2[C@@H]1O[C@H](COP(=O)(O)OP(=O)(O)OP(=O)(O)O)[C@@H](O)[C@H]1O` [ATP, adenosine triphosphate], the “lowest ATP concentration at which binding to Abl is distinguished above background” value (Abl-modified SiNW device) was ≤ 100 pM and the Kd (estimated from the linear response region of delta-G vs. ATP concentration, Abl-modified SiNW, read-out: ATP binding constant) was ~100 nM.

Reference: US20070264623A1, “Nanosensors” (PRESIDENT AND FELLOWS OF HARVARD COLLEGE, priority 2004, published 2007)
